The RNAGym collection of RNA variant scans (doi:10.7554/elife.90254)
Read counts are not given, so values of variants with three or more changes are uncertain.

B1: LINE1-mini (parent)
chain: GGCAGAGCUCAACACAGCGUGGCAAAGUGGCUGUGGCUAGACUGCC

Variants of: B1
Experiment: self-cleavage, relative activity (ratio to wild type); higher = more cleavage; in vitro, sequencing; the parent is a self-cleaving ribozyme

Variant	self-cleavage
G2C C3A C13A A24G G29C	0.04
G2C C15A G22C	0.06
G2U A11C C23U U34C	0.01
G2U C3U G7A C8G A24C G44A	0.04
G2C G7A A11C A12G	0.07
G2C G5C C10G C46A	0.02
G2C C23U U34G C42U	0.14
G2C C8G G44A	0.04
G2C U28A G29A G44U	0.03
G2U A11C U38C G44U	0
G2C A6G G44A	0.02
G2C G5U A14U A26U C31U G35U	0.04
G2C C13U U28G	0.01
G2U A11G C13A	0.03
G2U C3A A4G C13A	0.04
G2C C31U G40C	0.23
G2C C18A U32C A41C	0.02
G2C G5U C8A C31A	0.07
G2U C3A A14G G22U C46G	0.06
G2C A11G G21A A26C C31A	0.01
G2C U38A C42U	0.09
G2C C13A A26C U28A U32G C45A	0.02
G2U A6C G7U A39U	0.03
G2U A11C A16U A26G G30C U34C G40U	0.01

Variant	self-cleavage
G2C C10A C18U G30C C37U A39G	0.01
G2U C3G A6U U9G C13U A14G	0.12
G2U A16C G19U	0
G2C G30A C37G C46U	0.01
G2C G5U U28C G33A G35U G36U C42A G44A	0.01
G2C C3G C10A	0.04
G2C C3G C10G	0.06
G2U A14C G22U C31U C37A	0.01
G2C C13A G17C G29U G33A U34A	0.11
G2C C13A G19U G29C U34A G35C A41G	0.13
G2U A11C C13G	0
G2U A16G U34A C45A	0.01
G2U A24C G36U	0.15
G2U C3U G5A U38A	0.08
G2C A6C C8U C10A	0.12
G2U A24U C42A	0.02
G2U A14U A26U	0.05
G2U A16G G40C	0.03
G2C C10A A14U A25G G40U	0.01
G2C U9G C15A A41G C42U	0.06
G2C G7A G36C	0.02
G2U A14U C37A	0.03
G2C C8U C13A A41U G44U	0.03
G2U A11C U43A C45U	0.01

Variant	self-cleavage
G2U A4G G21C G44U C46U	0.06
G2C C10A G44U	0.02
G2U C3A A26G G35A	0.06
G2C U28G G36C	0.08
G2C A11C G21C C31A	0.01
G2U A4C C8A A16U A26U	0.07
G2C A12U G22A G29U	0.66
G2C U28G A39U C42U	0.02
G2C G35C C42A	0.03
G2C A12C G21U G36C U38G	0.13
G2C G5U A25C A26C G30A	0.01
G2C A14U G40U C46U	0.12
G2C A26C G36U	0.1
G2C G7U C18A G29A A39U C42A	0.05
G2U A24U U38A G40C	0.1
G2C G7U G44C	0.09
G2U A6C C37A	0.1
G2U A6C C37G	0.04
G2C C10A G19A U32G G35U	0.01
G2U A6U C13G C15A G17A G22U	0.12
G2U A4U C15G	0.01
G2C A6U G30U C31U	0.13
G2C C3U A25C A41G U43G	0.04
G2U A4U G17U	0.02

Variant	self-cleavage
G2C G19A U20A U38G	0
G2U A16G A24G G40U	0.01
G2C A14U G29U	0.08
G2U C3U A11U U32G	0.04
G2C C3A G5C G19U	0.06
G2U C3G G5U C42A C45U	0.07
G2C C3A G7C A16U C23A U28C C37G	0.42
G2C C3G G17U G44C C46U	0.03
G2C G7A G27C	0.13
G2C A6G A14C G21C G29A U43C	0.01
G2C C3G G21A G30U	0.55
G2C C31G G35U	0.02
G2C C8U A11G G40A G44U	0.02
G2C G17U U34G U38G	0.02
G2C C15U G22U	0.05
G2U A12C C15U G21A A25U G27U	0.01
G2C G19C G44C	0.01
G2C A12C C23U A41G	0
G2C C13G G17A	0.06
G2C A4U C15A G17U	0.05
G2C C13U C23G A26C	0.05
G2C G5U C10A G17U A25C U38C A41U	0.04
G2C A11G A12C G30A C42U	0
G2C G21A C23A	0.97

Variant	self-cleavage
G2C C15A G27C	0.08
G2C G17C G35U	0.01
G2C G22C A25U C37U	0.05
G2C G7U C23G U32G	0.32
G2C C15A G17C U38C	0.04
G2C A14C G22A C31U	0.01
G2C G44U C45U	0.47
G2C C15G G19A G40A	0.02
G2C C18A G21C C45U C46U	0.06
G2C C8A A14C A16C C31G	0.06
G2C A12G U20C U32A	0.03
G2C C8U G21U	0.11
G2C G17U G30C U34C	0.03
G2C C13A C15U C18U	0.01
G2U C3G C18G	0.14
G2U A6C G7U U20C C23A G27A	0.02
G2C U9G A11U G33C A39G C42G	0
G2C G7U C8G C42A	0.09
G2C C10A G33A	0.03
G2C A14G G35A C37U	0.06
G2C U20G A24G	0.08
G2U C3A A14G	0.86
G2U A14G A16C G33U U38C	0
G2U A4C C10G A12C C13U G21U	0.01

Variant	self-cleavage
G2U A12U A39C	0.04
G2C C18G G21C U28G G36C G44U	0.03
G2C A6G C13U A39C	0.07
G2U A26U G35U U43G C45A	0.02
G2U A4G C15A C23G	0.06
G2C G7U U32G G35U	0.06
G2C C3A C10A A12C A24U	0.05
G2U C3U G21U	0.1
G2C G35A C45G	0.02
G2C A6G U28A	0.09
G2C U9A U28A	0.16
G2C G5C U9G C15A G27A	0.02
G2U A4U U9G G33A G35A A39U C42U	0.01
G2U A6C U20G U28C A39C	0.01
G2C G17A G21U A24U	0.01
G2U A14G G44U	0
G2C C3G C31A G36A	0.02
G2C C10A G17C G35U	0.03
G2U A6G U9C C10U C13U G30A C42A	0.04
G2C A6G G19U	0.03
G2U A11G A14U G27A	0.01
G2U A4G U28G U34C	0.02
G2C G7A C10A	0.03
G2U A16C G29A G35C	0.1

Variant	self-cleavage
G2U A11G U38G	0.01
G2U A12U A16G G30C C37G G40C C46A	0.01
G2C C10G A11U A16C A25C U28G	0.01
G2U A16C A26C C31U	0.05
G2C C10G C18G U28A	0.01
G2C C3A U28C U34G C45G	0.04
G2C C10U G17A	0.03
G2C G21A C46A	0.38
G2U C3G G29A C31U G36U A39C	0.02
G2C C8U A26U G29U G30A	0.08
G2C G5C U28A	0.04
G2C C13U C37A G40A C45G	0.29
G2U A12G C13A C18G G19U G22A	0.03
G2C G5U U32G G35U	0.07
G2C C8U G27U U34A G40U	0.04
G2C A16U G21C U28G	0.01
G2C C15G A16U G19C A25C	0
G2U A4C U9C C10A A26C G36C	0
G2U A14G U28G C37G	0.03
G2C G5C A24C	0.01
G2C U9A C31A U32C	0.09
G2C C13G U20G A39C G40A	0.02
G2C A14U G21U	0.19
